{"source": "paper PMC10657792", "about": "“Downstream Allosteric Modulation of NMDA Receptors by 3-Benzazepine Derivatives” (Molecular Neurobiology, 2023)", "format_in_all_cases": "cell-based", "key": {"[1]": {"biological_target": "T1, GluN1a wt/ GluN2B wt (Rattus norvegicus, UniProt P35439+Q00960)", "test": "TEVC recording in X. laevis oocytes in the presence of agonists and 200 µM spermine", "details": "agonists + 200 µM spermine; fitted curve", "procedure": "(§1) The NMDAR was expressed in stage V and VI oocytes originated from X. laevis. Oocytes were provided by Ecocyte Bioscience (Dortmund, Germany), and equimolar amounts of wild-type and mutated GluN1 and GluN2B cRNA were injected (0.8 ng each). The oocytes were incubated in Barth’s solution, containing (mmol l^−1): 88 NaCl, 1 KCl, 0.4 CaCl2, 0.33 Ca(NO3)2, 0.6 MgSO4, 5 TRIS–HCl, 2.4 NaHCO3, supplemented with 80 mg l^−1 theophylline, 63 mg l^−1 benzylpenicillin, 40 mg l^−1 streptomycin, and 100 mg l^−1 gentamycin and maintained at 18 °C until usage. After injection, the oocytes were incubated for 5 days at 18 °C. Subsequently, the activity of the expressed NMDARs in the oocytes was recorded by two-electrode voltage clamp (TEVC).\n(§2) The compounds were retrieved as 10 mM stock solutions in DMSO and were subsequently diluted with agonist solution and adjusted to 0.1% DMSO concentration. Inhibition of each compound was measured via TEVC in X. laevis oocytes at room temperature using a Turbo Tec 10CX amplifier (NPI electronic, Tamm, Germany), NI USB 6221 DA/AD Interface (National Instruments, Austin, USA), and GePulse Software (Dr. Michael Pusch, Genova, Italy). Ba^2+-Ringer, consisting of 10 mM HEPES, 90 mM NaCl, 1 mM KCl, and 1.5 mM BaCl2, adjusted to pH 7.4, was used for TEVC measurements. […] Example traces for all recorded conditions can be found in Supplementary Figs. S2–S9. […]"}, "[2]": {"biological_target": "GluN1b wt/ GluN2B wt (Rattus norvegicus, UniProt P35439+Q00960)", "test": "TEVC recording in X. laevis oocytes in the presence of agonists and 200 µM spermine", "details": "agonists + 200 µM spermine; fitted curve", "procedure": "as §1, §2"}, "[3]": {"biological_target": "T1, GluN1a wt/ GluN2B wt", "test": "TEVC recording of NMDAR currents in X. laevis oocytes, inhibition by compound", "details": "fitted curve", "procedure": "as §1, §2"}, "[4]": {"biological_target": "GluN1b wt/ GluN2B F114A (Rattus norvegicus, UniProt P35439+Q00960, F114A)", "sequence (Q00960 27-1482 F114A, other chains not shown)": "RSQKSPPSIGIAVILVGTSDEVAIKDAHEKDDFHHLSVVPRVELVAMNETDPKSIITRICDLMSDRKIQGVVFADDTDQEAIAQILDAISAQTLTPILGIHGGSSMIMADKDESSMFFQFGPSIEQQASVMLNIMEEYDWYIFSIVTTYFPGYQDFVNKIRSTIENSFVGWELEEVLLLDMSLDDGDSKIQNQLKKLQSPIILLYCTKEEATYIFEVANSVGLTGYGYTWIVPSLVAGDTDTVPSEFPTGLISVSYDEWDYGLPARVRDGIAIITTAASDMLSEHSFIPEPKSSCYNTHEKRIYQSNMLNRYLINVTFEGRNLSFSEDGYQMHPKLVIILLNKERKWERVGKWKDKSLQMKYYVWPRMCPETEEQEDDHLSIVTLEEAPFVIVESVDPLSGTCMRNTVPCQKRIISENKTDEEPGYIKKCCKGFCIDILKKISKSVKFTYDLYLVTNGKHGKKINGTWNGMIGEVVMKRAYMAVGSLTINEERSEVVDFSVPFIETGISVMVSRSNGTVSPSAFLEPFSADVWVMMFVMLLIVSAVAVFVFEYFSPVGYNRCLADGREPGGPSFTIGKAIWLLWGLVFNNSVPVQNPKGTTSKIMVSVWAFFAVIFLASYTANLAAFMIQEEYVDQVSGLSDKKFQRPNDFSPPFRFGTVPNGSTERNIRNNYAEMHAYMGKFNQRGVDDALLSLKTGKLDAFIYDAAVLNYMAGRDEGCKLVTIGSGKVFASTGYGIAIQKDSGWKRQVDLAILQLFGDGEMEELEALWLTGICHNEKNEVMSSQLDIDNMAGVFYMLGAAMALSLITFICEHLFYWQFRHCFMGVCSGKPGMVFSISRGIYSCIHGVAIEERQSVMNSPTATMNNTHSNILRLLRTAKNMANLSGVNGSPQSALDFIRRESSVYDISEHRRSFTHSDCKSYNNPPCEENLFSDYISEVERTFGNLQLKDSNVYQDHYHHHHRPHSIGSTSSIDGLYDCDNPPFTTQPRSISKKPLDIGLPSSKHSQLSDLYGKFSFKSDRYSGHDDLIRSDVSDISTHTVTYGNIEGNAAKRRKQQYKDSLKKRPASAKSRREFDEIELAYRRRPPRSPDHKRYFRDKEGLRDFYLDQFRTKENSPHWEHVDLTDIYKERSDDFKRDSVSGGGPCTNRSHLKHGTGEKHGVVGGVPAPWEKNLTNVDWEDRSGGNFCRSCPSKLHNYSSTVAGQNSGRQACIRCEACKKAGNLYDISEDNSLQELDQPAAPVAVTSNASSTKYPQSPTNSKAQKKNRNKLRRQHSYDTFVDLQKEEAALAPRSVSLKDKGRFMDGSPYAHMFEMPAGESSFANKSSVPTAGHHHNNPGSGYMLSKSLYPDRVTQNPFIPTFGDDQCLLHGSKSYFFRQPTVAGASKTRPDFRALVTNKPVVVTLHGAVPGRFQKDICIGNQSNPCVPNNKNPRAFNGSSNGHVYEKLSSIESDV", "test": "TEVC recording in X. laevis oocytes, GluN2B mutant screening", "details": "GluN1-1b/F114A, single oocytes", "procedure": "(§3) Single point mutations were incorporated into template DNA (GluN1-1b wt/ pSGEM and GluN2B wt/ pSGEM) by using the QuikChange II XL site-directed mutagenesis kit (Agilent Technologies, Germany). Mutagenesis primers were designed using the QuikChange Primer Design Program (Agilent) and provided by Microsynth (Microsynth AG, Balgach, Switzerland). For mutation of the desired amino acid in the gene, PCR amplification was performed with the respective mutagenesis primers (Eppendorf MasterCycler Gradient, Eppendorf Hamburg, Germany). Mutations were verified by automated DNA sequencing. Constructs were linearized with PacI (GluN1) or NheI (GluN2B). cRNA was prepared byin vitrotranscription using the mMessage mMachine T7 kit (Life Technologies, Darmstadt, Germany).\nas §1\n(§4) The compounds were retrieved as 10 mM stock solutions in DMSO and were subsequently diluted with agonist solution and adjusted to 0.1% DMSO concentration. Inhibition of each compound was measured via TEVC in X. laevis oocytes at room temperature using a Turbo Tec 10CX amplifier (NPI electronic, Tamm, Germany), NI USB 6221 DA/AD Interface (National Instruments, Austin, USA), and GePulse Software (Dr. Michael Pusch, Genova, Italy). Ba^2+-Ringer, consisting of 10 mM HEPES, 90 mM NaCl, 1 mM KCl, and 1.5 mM BaCl2, adjusted to pH 7.4, was used for TEVC measurements. Agonist solution containing 10 µM glycine and 10 µM (S)-glutamate was prepared in Ba^2+-Ringer, and the measurements were performed at a holding potential of − 70 mV, using electrodes with a glass capillary filled with 3 M KCl and a resistance between 0.5 and 1.5 MΩ. The compounds were tested by applying ascending concentrations, ranging from 1 to 30,000 nM, in at least six oocytes. Example traces for all recorded conditions can be found in Supplementary Figs. S2–S9.\n(§5) TEVC data were analyzed using Ana (Dr. Michael Pusch, Genova, Italy), and statistics were performed using OriginPro 2020 (OriginLab Corporation, Northampton, USA). The inhibitory effect of each compound is calculated using the following equation: inhibition=1-Ic-Ih/Ia-Ih where Ih describes the current in the absence of agonists; Ia represents the steady-state current in the presence of the agonists; and Ic is defined as the steady-state after binding of agonist and compound. All dose response curves are fitted to the following logistic equation: y=A1-A2/1+x/x0^p+A2 where A1 describes the minimal inhibition of a compound and was set to 0; A2 represents the maximal inhibition of a compound; p is the slope of the curve; x0 is defined as the concentration at half-maximal inhibition; and x is the tested concentration. Data were statistically analyzed by one-way ANOVA and Tukey post-hoc mean comparison test in OriginPro 2020 (OriginLab Corporation, Northampton, USA). p values are indicated by * for p < 0.05, ** for p < 0.01, and *** for p < 0.001."}, "[5]": {"biological_target": "GluN1b wt/ GluN2B N192A (Rattus norvegicus, UniProt P35439+Q00960, N192A)", "test": "TEVC recording in X. laevis oocytes, GluN2B mutant screening", "details": "GluN1-1b GluN2B N192A, single oocytes", "procedure": "as §3, §1, §4, §5"}, "[6]": {"biological_target": "GluN1a wt/ GluN2B F194A (Rattus norvegicus, UniProt P35439+Q00960, F194A)", "sequence (Q00960 27-1482 F194A, other chains not shown)": "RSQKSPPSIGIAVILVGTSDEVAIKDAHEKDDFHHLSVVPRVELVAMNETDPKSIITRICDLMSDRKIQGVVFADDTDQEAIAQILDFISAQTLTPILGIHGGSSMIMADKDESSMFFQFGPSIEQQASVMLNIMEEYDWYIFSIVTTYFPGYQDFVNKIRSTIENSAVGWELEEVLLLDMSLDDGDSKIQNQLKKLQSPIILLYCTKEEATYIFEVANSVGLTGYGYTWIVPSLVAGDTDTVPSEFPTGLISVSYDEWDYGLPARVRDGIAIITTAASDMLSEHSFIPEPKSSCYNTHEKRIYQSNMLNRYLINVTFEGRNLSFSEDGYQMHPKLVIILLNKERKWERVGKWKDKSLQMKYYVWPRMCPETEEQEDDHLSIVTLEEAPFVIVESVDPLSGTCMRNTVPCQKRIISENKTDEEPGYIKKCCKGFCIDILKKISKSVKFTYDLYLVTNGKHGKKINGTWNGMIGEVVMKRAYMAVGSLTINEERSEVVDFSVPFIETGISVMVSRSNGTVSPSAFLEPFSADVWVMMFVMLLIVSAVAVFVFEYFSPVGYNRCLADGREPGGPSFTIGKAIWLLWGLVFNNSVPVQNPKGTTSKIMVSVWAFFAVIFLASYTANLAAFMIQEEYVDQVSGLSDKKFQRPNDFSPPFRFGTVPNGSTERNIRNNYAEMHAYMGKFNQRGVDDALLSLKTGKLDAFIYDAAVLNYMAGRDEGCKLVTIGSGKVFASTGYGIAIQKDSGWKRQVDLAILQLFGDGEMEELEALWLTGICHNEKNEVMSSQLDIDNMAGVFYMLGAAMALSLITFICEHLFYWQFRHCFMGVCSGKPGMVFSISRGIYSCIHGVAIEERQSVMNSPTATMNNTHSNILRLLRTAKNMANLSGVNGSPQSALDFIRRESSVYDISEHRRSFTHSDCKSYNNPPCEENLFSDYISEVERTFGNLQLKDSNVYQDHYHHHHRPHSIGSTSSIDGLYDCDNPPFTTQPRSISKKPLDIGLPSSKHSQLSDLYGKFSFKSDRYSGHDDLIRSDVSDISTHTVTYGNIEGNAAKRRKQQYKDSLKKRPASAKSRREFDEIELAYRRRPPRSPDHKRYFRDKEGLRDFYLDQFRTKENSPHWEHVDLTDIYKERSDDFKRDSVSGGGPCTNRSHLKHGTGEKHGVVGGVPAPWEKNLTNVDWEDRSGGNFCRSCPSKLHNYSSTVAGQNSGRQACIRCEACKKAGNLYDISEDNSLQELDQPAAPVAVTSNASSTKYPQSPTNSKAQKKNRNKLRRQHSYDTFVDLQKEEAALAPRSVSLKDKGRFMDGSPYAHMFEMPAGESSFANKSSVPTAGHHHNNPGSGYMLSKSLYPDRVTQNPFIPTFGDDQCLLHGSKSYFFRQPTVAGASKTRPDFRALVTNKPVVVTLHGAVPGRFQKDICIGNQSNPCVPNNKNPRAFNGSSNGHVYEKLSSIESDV", "test": "TEVC recording in X. laevis oocytes, GluN2B mutant screening", "details": "GluN1-1a GluN2B F194A, compound concentration 30 μM, single oocytes", "procedure": "as §3, §1, §4, §5"}, "[7]": {"biological_target": "GluN1b wt/ GluN2B F194A (Rattus norvegicus, UniProt P35439+Q00960, F194A)", "test": "TEVC recording in X. laevis oocytes, GluN2B mutant screening", "details": "GluN1-1b GluN2B F194A, single oocytes", "procedure": "as §3, §1, §4, §5"}, "[8]": {"biological_target": "GluN1b wt/ GluN2B F176A (Rattus norvegicus, UniProt P35439+Q00960, F176A)", "sequence (Q00960 27-1482 F176A, other chains not shown)": "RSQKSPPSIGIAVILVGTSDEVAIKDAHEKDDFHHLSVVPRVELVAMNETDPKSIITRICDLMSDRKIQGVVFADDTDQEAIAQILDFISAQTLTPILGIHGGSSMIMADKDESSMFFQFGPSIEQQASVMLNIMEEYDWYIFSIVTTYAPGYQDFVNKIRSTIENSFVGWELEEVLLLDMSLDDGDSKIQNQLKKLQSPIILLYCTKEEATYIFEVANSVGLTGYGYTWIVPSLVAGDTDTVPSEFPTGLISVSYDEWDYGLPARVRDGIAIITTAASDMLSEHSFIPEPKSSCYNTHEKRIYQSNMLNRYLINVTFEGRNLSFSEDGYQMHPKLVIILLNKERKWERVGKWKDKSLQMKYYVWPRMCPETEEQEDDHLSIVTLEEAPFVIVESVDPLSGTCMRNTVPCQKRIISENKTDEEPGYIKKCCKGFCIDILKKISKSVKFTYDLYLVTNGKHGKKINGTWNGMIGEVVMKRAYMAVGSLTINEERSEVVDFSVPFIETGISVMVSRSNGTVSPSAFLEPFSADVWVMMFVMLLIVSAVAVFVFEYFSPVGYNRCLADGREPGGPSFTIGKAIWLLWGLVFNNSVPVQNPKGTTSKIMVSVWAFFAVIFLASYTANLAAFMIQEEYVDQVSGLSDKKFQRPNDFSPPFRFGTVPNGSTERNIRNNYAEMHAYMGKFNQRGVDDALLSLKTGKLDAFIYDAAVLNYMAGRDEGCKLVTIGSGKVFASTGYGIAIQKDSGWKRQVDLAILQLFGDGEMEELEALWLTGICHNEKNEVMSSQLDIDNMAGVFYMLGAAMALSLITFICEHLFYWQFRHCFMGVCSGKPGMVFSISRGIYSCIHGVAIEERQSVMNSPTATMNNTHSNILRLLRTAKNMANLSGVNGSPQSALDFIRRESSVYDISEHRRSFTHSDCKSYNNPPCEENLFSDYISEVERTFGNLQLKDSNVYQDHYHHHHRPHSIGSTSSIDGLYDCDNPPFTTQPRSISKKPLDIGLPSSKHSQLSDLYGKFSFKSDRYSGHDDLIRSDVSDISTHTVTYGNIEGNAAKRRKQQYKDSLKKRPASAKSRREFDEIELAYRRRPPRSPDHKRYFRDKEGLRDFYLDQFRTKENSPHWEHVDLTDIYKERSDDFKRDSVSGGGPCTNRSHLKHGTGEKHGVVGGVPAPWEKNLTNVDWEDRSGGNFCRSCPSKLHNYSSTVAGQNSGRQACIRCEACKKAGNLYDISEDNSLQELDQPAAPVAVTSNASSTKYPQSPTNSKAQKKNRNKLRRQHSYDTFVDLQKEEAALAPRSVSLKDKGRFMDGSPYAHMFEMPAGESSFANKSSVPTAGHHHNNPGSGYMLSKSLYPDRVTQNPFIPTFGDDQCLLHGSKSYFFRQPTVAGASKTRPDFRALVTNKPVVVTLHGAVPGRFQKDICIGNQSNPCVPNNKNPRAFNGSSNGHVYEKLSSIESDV", "test": "TEVC recording in X. laevis oocytes, GluN2B mutant screening", "details": "GluN1-1b/F176A, compound concentration 0.1 μM, single oocytes", "procedure": "as §3, §1, §4, §5"}, "[9]": {"details": "compound concentration 0.1 μM, 0.1 µM"}, "[10]": {"details": "compound concentration 1 μM, 1 µM"}, "[11]": {"details": "compound concentration 10 μM, 10 µM"}, "[12]": {"details": "compound concentration 30 μM, 30 µM"}}, "note": "Where “and” joins values, the source holds several entries; their conditions need not be identical. Equal entries are not always repeated. Further values from the same series stand in other lists."}
{"smiles": "Oc1ccc2c(c1)CCN(CCCCc1ccccc1F)C[C@@H]2O", "note": "[(R)-OF-NB1]", "values": [{"measurement": "A2 (level of maximal inhibition)", "setting": "[1]", "value": 89.1, "unit": "%"}, {"measurement": "A2 (level of maximal inhibition)", "setting": "[2]", "value": 83.8, "unit": "%"}, {"measurement": "A2 (level of maximal inhibition)", "setting": "[3]", "value": 100.5, "unit": "%"}, {"measurement": "inhibition (%)", "setting": "[4]; [9]", "value": "0% and -0.1234% and 0.05377% and 0.9122% and -0.4502% and 0.6359%"}, {"measurement": "inhibition (%)", "setting": "[4]; [10]", "value": "5.172% and 3.405% and 11.7405% and 3.985% and 6.7788% and 11.6899%"}, {"measurement": "inhibition (%)", "setting": "[4]; [11]", "value": "28.7376% and 28.152% and 41.6024% and 25.3505% and 32.7982% and 47.0166%"}, {"measurement": "inhibition (%)", "setting": "[4]; [12]", "value": "48.1467% and 50.0452% and 58.2362% and 42.0492% and 48.1566% and 68.3669%"}, {"measurement": "inhibition (%)", "setting": "[5]; [9]", "value": "11.5535% and 2.646% and 3.333% and 2.434% and 5.269%"}, {"measurement": "inhibition (%)", "setting": "[5]; [10]", "value": "58.7866% and 66.5142% and 45.098% and 64.6036% and 45.5914%"}, {"measurement": "inhibition (%)", "setting": "[5]; [11]", "value": "78.8304% and 63.5294% and 72.1836% and 63.1183%"}, {"measurement": "inhibition (%)", "setting": "[5]; [12]", "value": "82.9467% and 68.4314% and 78.1641% and 72.9032%"}, {"measurement": "inhibition (%)", "setting": "[6]", "value": "62.0359% and 67.3898% and 52.2908% and 38.5354%"}, {"measurement": "inhibition (%)", "setting": "[7]; [10]", "value": "30.6448% and 28.1302% and 37.6227% and 26.3279% and 28.8059% and 36.8421%"}, {"measurement": "inhibition (%)", "setting": "[7]; [11]", "value": "46.7656% and 43.0089% and 39.5783% and 50.3999% and 45.7865% and 60.0901% and 55.7315%"}, {"measurement": "inhibition (%)", "setting": "[7]; [12]", "value": "50.1328% and 48.4372% and 56.9793% and 54.2135% and 67.8468% and 62.0874%"}, {"measurement": "inhibition (%)", "setting": "[8]", "value": "-0.7357% and -0.1027% and 0.02963% and 0.01807% and 0.6249% and 1.24% and 0.06543% and -1.094%"}]}
